{
  "source": "paper PMC4336329",
  "about": "(PLoS ONE, 2015)",
  "note": "Out of some 310,000 compounds screened, about 14,000 (4.5%) showed an effect of 50% or more. Effects have a minus sign here. The list shows a part of the results.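 Note: peak tail current of the secondary pulse compared with the same well before compound.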",
  "data": [
    {"biological_target": "human ether-à-go-go-related gene (hERG) potassium channel (human, UniProt Q12809)", "sequence (Q12809 whole entry, looked up)": "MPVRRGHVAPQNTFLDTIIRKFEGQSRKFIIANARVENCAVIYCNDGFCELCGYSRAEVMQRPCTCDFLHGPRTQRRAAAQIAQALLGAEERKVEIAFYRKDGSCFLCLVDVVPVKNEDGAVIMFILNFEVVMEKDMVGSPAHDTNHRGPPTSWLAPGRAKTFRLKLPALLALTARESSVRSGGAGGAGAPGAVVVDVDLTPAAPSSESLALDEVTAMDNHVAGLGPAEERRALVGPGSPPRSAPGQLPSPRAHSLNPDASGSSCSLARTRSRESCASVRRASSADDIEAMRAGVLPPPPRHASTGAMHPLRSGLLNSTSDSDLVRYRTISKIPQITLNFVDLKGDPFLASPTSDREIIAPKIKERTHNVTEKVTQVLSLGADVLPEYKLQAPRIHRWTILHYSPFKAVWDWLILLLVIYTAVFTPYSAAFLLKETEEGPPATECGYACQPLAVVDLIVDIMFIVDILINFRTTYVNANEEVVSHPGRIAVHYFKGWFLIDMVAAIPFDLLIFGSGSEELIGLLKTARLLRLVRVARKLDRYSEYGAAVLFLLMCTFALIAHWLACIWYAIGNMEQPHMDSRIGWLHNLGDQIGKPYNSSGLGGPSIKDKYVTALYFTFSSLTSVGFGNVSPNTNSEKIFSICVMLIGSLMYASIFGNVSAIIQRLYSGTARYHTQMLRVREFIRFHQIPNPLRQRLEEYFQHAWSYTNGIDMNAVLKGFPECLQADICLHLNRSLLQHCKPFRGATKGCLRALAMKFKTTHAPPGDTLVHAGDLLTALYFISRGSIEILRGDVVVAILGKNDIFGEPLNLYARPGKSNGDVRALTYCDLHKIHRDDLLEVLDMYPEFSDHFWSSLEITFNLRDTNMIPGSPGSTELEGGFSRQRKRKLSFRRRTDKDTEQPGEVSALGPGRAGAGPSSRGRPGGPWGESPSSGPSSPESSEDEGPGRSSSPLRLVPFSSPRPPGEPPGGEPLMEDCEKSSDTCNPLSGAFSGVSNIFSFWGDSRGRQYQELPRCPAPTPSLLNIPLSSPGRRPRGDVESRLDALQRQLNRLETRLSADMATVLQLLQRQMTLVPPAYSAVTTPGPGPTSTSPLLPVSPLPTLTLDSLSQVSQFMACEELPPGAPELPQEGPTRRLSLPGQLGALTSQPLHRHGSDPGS", "experiment": "primary screen, population patch clamp on CHO cells stably expressing hERG", "units": {"hERG current change (%, negative = inhibition) at 10uM": "%"}, "values": [
      {"smiles": "Cc1nnc(SCC(=O)N2CCOCC2)[nH]c1=O", "hERG current change (%, negative = inhibition) at 10uM": -1.12},
      {"smiles": "O=C(Nc1cccc(Cl)c1)c1cnn2cccnc12", "hERG current change (%, negative = inhibition) at 10uM": 7.19},
      {"smiles": "O=C(Nc1ccc(-c2nc3ccccc3o2)cc1)C1CCCO1", "note": "(centres unmarked)", "hERG current change (%, negative = inhibition) at 10uM": -6.36},
      {"smiles": "Cc1ccc(C(CNS(=O)(=O)c2ccc(F)cc2)N2CCN(C)CC2)cc1", "note": "(centres unmarked)", "hERG current change (%, negative = inhibition) at 10uM": -58.3},
      {"smiles": "Cc1cc(C(=O)N/N=C/c2ccc3c(c2)OCO3)c2ccccc2n1", "hERG current change (%, negative = inhibition) at 10uM": -6.41},
      {"smiles": "C=CC[C@@H]1C=C[C@H](O/N=C/[C@@H](NS(=O)(=O)c2ccc(C)cc2)[C@H](C)/C=C/CC(=O)OC)[C@@H](CO)O1", "hERG current change (%, negative = inhibition) at 10uM": 0.961},
      {"smiles": "Cc1ccc(/C=N/Nc2nc3ccccc3s2)o1", "hERG current change (%, negative = inhibition) at 10uM": -8.33},
      {"smiles": "CCCC(=O)Nc1ccccc1NC(=O)c1ccc(OC(C)=O)cc1", "hERG current change (%, negative = inhibition) at 10uM": 9.55},
      {"smiles": "CCn1c(C)c(C)c2cc(C(=O)NCCN3CCCCCC3)ccc21", "hERG current change (%, negative = inhibition) at 10uM": -25},
      {"smiles": "CCOC(=O)c1cn2nc(SCc3ccccc3)nc2nc1C", "hERG current change (%, negative = inhibition) at 10uM": -14.3},
      {"smiles": "Cc1ccc(/C=C2\\SC(=S)N(CC(=O)Nc3ncc(Cc4ccccc4Cl)s3)C2=O)cc1", "hERG current change (%, negative = inhibition) at 10uM": -6.81},
      {"smiles": "Cc1ccc(NC(=O)C2CCCN2C(=O)NCc2ccccc2)cc1", "note": "(centres unmarked)", "hERG current change (%, negative = inhibition) at 10uM": 0.117},
      {"smiles": "CCCCCc1nnc(NC(=O)CS(=O)(=O)Cc2ccccc2)s1", "hERG current change (%, negative = inhibition) at 10uM": 1.04},
      {"smiles": "COc1ccc(CCN(Cc2cc3ccc(C)cc3[nH]c2=O)C(C)=O)cc1OC", "hERG current change (%, negative = inhibition) at 10uM": -65.1},
      {"smiles": "CCCCOC(=O)Cn1c(=O)c2c(nc(Br)n2Cc2ccccc2)n(C)c1=O", "hERG current change (%, negative = inhibition) at 10uM": -4.05},
      {"smiles": "COc1ccc(-n2c(Cc3cccn3C)nnc2SCC(=O)Nc2ccccc2)cc1", "hERG current change (%, negative = inhibition) at 10uM": -19.5},
      {"smiles": "COCc1ccc(C(=O)N2CCCC(N(C)Cc3ccccc3)C2)s1", "note": "(centres unmarked)", "hERG current change (%, negative = inhibition) at 10uM": -8.86},
      {"smiles": "NS(=O)(=O)c1ccc(N=Cc2c(O)n(-c3ccccc3)c(=O)[nH]c2=O)cc1", "hERG current change (%, negative = inhibition) at 10uM": 6.2},
      {"smiles": "COc1ccccc1CNC(=O)C1CCC(CNS(=O)(=O)c2ccc(C)cc2)CC1", "note": "(centres unmarked)", "hERG current change (%, negative = inhibition) at 10uM": 25.9},
      {"smiles": "O=c1cc(CSc2nnnn2-c2ccccc2)[nH]c2[nH]n(-c3ccccc3)c(=O)c12", "hERG current change (%, negative = inhibition) at 10uM": -3.95},
      {"smiles": "Cc1ccc(C2CC(c3cccs3)=NN2C(=O)CSc2nc3ccccc3o2)cc1", "note": "(centres unmarked)", "hERG current change (%, negative = inhibition) at 10uM": 4.94},
      {"smiles": "CCOc1ccccc1OCCOc1cccc(C(F)(F)F)c1", "hERG current change (%, negative = inhibition) at 10uM": 13.6},
      {"smiles": "Cc1onc(-c2ccccc2)c1C(=O)NNC(=S)NC(=O)c1ccc(Cl)cc1Cl", "hERG current change (%, negative = inhibition) at 10uM": 12.3},
      {"smiles": "CC1=C(C(=O)Nc2ccccc2F)C(c2ccsc2)C2=C(CC(c3ccccc3)CC2=O)N1", "note": "(centres unmarked)", "hERG current change (%, negative = inhibition) at 10uM": -11.8},
      {"smiles": "COc1cccc(NC(=O)c2cnc(SC)nc2)c1", "hERG current change (%, negative = inhibition) at 10uM": 12.4},
      {"smiles": "CC(C)C1N=C(c2ccc3c(c2)OCO3)CC(c2ccccc2O)N1", "note": "(centres unmarked)", "hERG current change (%, negative = inhibition) at 10uM": -20.5},
      {"smiles": "O=C(CNC(=O)c1ccccc1Cl)Nc1ccncc1", "hERG current change (%, negative = inhibition) at 10uM": 1.41},
      {"smiles": "CCCCNC(=O)c1cccc(NC(=O)C(=O)c2ccccc2NC(C)=O)c1", "hERG current change (%, negative = inhibition) at 10uM": -19.1},
      {"smiles": "CCN(CC)S(=O)(=O)c1cccc(NC(=O)C2SC(=Nc3ccc(C)cc3C)C(C(=O)NCC3CCCO3)=C2N)c1", "note": "(centres unmarked)", "hERG current change (%, negative = inhibition) at 10uM": 5.02},
      {"smiles": "COc1cccc(C(=O)NC2CC3CCCC(C2)N3S(=O)(=O)c2ccccc2)c1", "note": "(centres unmarked)", "hERG current change (%, negative = inhibition) at 10uM": -75.8},
      {"smiles": "C=CCn1c(SCC(=O)Nc2ccc(Br)cc2)nc(O)c(CC)c1=O", "hERG current change (%, negative = inhibition) at 10uM": 4.3},
      {"smiles": "NC(=O)COC(=O)c1ccccc1OCc1ccc(Cl)cc1", "hERG current change (%, negative = inhibition) at 10uM": -5.5},
      {"smiles": "CC(C)(C)OC(=O)NNC(=O)C12CC3CC(CC(C3)C1)C2", "hERG current change (%, negative = inhibition) at 10uM": 10.9},
      {"smiles": "COc1cccc(C2CC(C(F)(F)F)n3ncc(C(=O)Nc4c(C)n(C)n(-c5ccccc5)c4=O)c3N2)c1", "note": "(centres unmarked)", "hERG current change (%, negative = inhibition) at 10uM": 5.82},
      {"smiles": "Cc1ccc2c(C)c(C(=O)NCC(C)(C)N3CCOCC3)oc2c1C", "hERG current change (%, negative = inhibition) at 10uM": -7.07},
      {"smiles": "CCC(c1nnnn1Cc1cccs1)N1CCN(C2CCCC2)CC1.Cl", "note": "(centres unmarked)", "hERG current change (%, negative = inhibition) at 10uM": -22.3},
      {"smiles": "COc1ccc(OC)c(NC(=O)CCN2CCN(CCO)CC2)c1", "hERG current change (%, negative = inhibition) at 10uM": 11.6},
      {"smiles": "O=C(N/N=C/c1ccc([N+](=O)[O-])o1)c1ccccc1NS(=O)(=O)c1cccs1", "hERG current change (%, negative = inhibition) at 10uM": -1.99},
      {"smiles": "Cc1nc(SCC(=O)c2ccccc2)c([N+](=O)[O-])[nH]1", "hERG current change (%, negative = inhibition) at 10uM": 9.37},
      {"smiles": "Cn1ncc2c(N3CCCCC3)nc(NCCCO)nc21", "hERG current change (%, negative = inhibition) at 10uM": 11.9},
      {"smiles": "COc1cc(NC(=O)CCS(=O)(=O)c2ccc3c(c2)oc(=O)n3C)cc(OC)c1", "hERG current change (%, negative = inhibition) at 10uM": -37.9},
      {"smiles": "O=C(O)c1ccc(Cl)c(S(=O)(=O)NCc2ccco2)c1", "hERG current change (%, negative = inhibition) at 10uM": 11.5},
      {"smiles": "Cn1c(=O)c2ccccc2n(CC(=O)NC2CCCC2)c1=O", "hERG current change (%, negative = inhibition) at 10uM": 9.82},
      {"smiles": "CNS(=O)(=O)c1cccc(C(=O)NCC(c2ccco2)N(C)C)c1", "note": "(centres unmarked)", "hERG current change (%, negative = inhibition) at 10uM": 3.32},
      {"smiles": "O=C(NCCc1ccccc1)c1ccc(Cl)c([N+](=O)[O-])c1", "hERG current change (%, negative = inhibition) at 10uM": -27.2},
      {"smiles": "COc1ccc(CNC(=O)CN(CC2CCCO2)C(=O)CNS(=O)(=O)c2ccc(C)cc2)cc1", "note": "(centres unmarked)", "hERG current change (%, negative = inhibition) at 10uM": -13.9},
      {"smiles": "CN(C)CCNC(=O)/C(=C/c1ccc(-c2cccc([N+](=O)[O-])c2)o1)NC(=O)c1ccccc1", "hERG current change (%, negative = inhibition) at 10uM": -75.4},
      {"smiles": "CCOc1ccc(/C=C(\\C(=O)O)c2ccc(S(=O)(=O)N3CCOCC3)s2)cc1OC", "hERG current change (%, negative = inhibition) at 10uM": 6.61},
      {"smiles": "C[C@H](CCC(=O)[O-])[C@H]1CC[C@H]2[C@@H]3[C@H](O)C[C@@H]4C[C@H](O)CC[C@]4(C)[C@H]3C[C@H](O)[C@]12C.O.[Na+]", "hERG current change (%, negative = inhibition) at 10uM": 6.36},
      {"smiles": "O=c1[nH]cnc2sc3c(c12)CCCCC3", "hERG current change (%, negative = inhibition) at 10uM": -8.3},
      {"smiles": "COc1cc(OC)cc(-c2c(-c3cccs3)c3cc(-c4cnc(OC)nc4)ccc3n2C)c1", "hERG current change (%, negative = inhibition) at 10uM": 1.57},
      {"smiles": "CC(C)(C)c1ccc(C(=O)N2CCCCCC2=O)cc1", "hERG current change (%, negative = inhibition) at 10uM": -6.48},
      {"smiles": "Cc1c(C(=O)NCc2cccnc2)sc2nc(-c3ccc(F)cc3)cn12", "hERG current change (%, negative = inhibition) at 10uM": -40.4}
    ]}
  ]
}
